Results on 172 sequences are retold here after article PMC6212790.

The other results are listed elsewhere or left out. At the low end of the ranking, values are background and their order means little.

The target of this assay is T1, GST-Rok-C97-191 (UniProt O34857).
T1 sequence: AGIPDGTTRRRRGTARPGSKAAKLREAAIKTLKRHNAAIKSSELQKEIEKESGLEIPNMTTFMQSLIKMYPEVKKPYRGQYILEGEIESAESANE
Description: protein binding microarray.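 Note: rank score from −0.5 (least bound) to 0.5 (best bound).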 Conditions: Rok is a gene silencer of Bacillus subtilis; high values mean tight binding; most listed sequences are background and not binding sites; double strand, one strand shown.
GTCCTGTA registered a binding signal of -0.104 E-score.
The sequence ACAAAGAG yielded a binding signal of -0.107 E-score.
The value for GTTGCTAA was 0.114 E-score; that for AAAACCAA was 0.0758 E-score; that for ATACACTG was 0.0882 E-score.
Turning to GGGCGTTA, the binding signal was -0.237 E-score.
The value for GCTCAATA was 0.114 E-score; that for CAAGGCTC was -0.273 E-score; that for ACACTTAT was 0.226 E-score.
The value for AATCGGAG was 0.123 E-score; that for ATCAGGAA was 0.156 E-score.
As to GATGACGA, the binding signal was -0.175 E-score.
In turn, ATGGTTTG displayed a binding signal of -0.003 E-score.
The value for ATGAGATG was 0.00662 E-score; that for GAGACTCA was -0.18 E-score.
For the sequence CCATAATA, the binding signal turned out to be 0.104 E-score.
CGGCAGGC returned a binding signal of -0.268 E-score.
The value for CGGGCCCC was -0.347 E-score; that for ATGTCTGA was 0.000888 E-score; that for CAACGTAA was 0.0717 E-score.
ATATTGAA registered a binding signal of 0.203 E-score.
The value for TGAGTCAA was 0.0513 E-score; that for CGCAGGCG was -0.308 E-score; that for CTCCCAAG was -0.265 E-score.
For AGCAGGCG, the binding signal was -0.141 E-score.
The value for CGTAAAAA was -0.0178 E-score.
Sequence CTTAGCCC showed a binding signal of -0.14 E-score.
Sequence CAGGCAAC came in with a binding signal of -0.0688 E-score.
The sequence CGGACCCC registered a binding signal of -0.212 E-score.
In turn, CCGGCAAG yielded a binding signal of -0.0857 E-score.
The value for GTAAGGCA was -0.0838 E-score; that for AGAGTACT was 0.169 E-score; that for AGAGAAGA was 0.0903 E-score.
The value for CATATGAA was -0.0194 E-score; that for ACGATCGA was 0.0924 E-score.
The value for AGGCTAGC was -0.115 E-score; that for GACACGTC was -0.169 E-score; that for CCTAGGAC was -0.0828 E-score.
The sequence ACGCGACA yielded a binding signal of 0.0239 E-score.
As for ACATATTA, the binding signal came to 0.304 E-score.
For the sequence ATTCTCTC, the binding signal was -0.105 E-score.
The value for GCTGCGTA was -0.148 E-score; that for ATGAGCAT was -0.0594 E-score; that for CGAGTGAA was -0.0682 E-score.
Take ACAAGAAC: the binding signal was 0.0534 E-score.
The value for ACCCACGT was -0.188 E-score; that for ATCTGTGA was -0.0563 E-score.
The sequence AAGAGCGT displayed a binding signal of -0.0627 E-score.
CCTGTGCG had a binding signal of -0.227 E-score.
The value for CACAAGTC was -0.271 E-score.
As to CCACGAAA, the binding signal was 0.0822 E-score.
The value for GAACTCAC was 0.0236 E-score.
Turning to CCGCCACC, the binding signal is -0.143 E-score.
The sequence ATCCTTAA registered a binding signal of -0.104 E-score.
Consider AGGAAGCC, for which the binding signal was -0.151 E-score.
The value for ATTCGGAA was 0.12 E-score; that for GTCGGCGA was -0.125 E-score; that for TAACACCA was 0.0115 E-score.
CCTTAGCA came in with a binding signal of -0.106 E-score.
The value for CGTATGAG was -0.028 E-score.
The value for AGCCTTCA was -0.128 E-score; that for ACACGCAG was -0.19 E-score; that for GTAATGAA was -0.0192 E-score.
Take GGTCAGCA: the binding signal was -0.231 E-score.
CCTAAATA yielded a binding signal of 0.155 E-score.
In turn, AATTGGAG registered a binding signal of 0.085 E-score.
The sequence AGGCCAAC registered a binding signal of -0.129 E-score.
The value for GCTAAACA was -0.119 E-score.
The sequence CACGGAGA displayed a binding signal of -0.118 E-score.
The value for AAGTACGA was 0.194 E-score; that for ACAGACCT was -0.054 E-score; that for CACGTGCA was -0.148 E-score.
The value for CACCCGAG was -0.0129 E-score; that for ATCCGCCA was -0.21 E-score.
The value for CACTGACG was 0.009 E-score.
ATAGCCCG: the binding signal was -0.0269 E-score.
The value for CGGGGGGA was -0.317 E-score; that for CGTTCAAG was -0.258 E-score; that for CTTGTACA was 0.115 E-score.
The value for ACAGTGGA was 0.124 E-score; that for GATATTGC was 0.0982 E-score.
TCGACTCA showed a binding signal of 0.0612 E-score.
The value for AAAAACAT was 0.1 E-score; that for AGTATGAG was 0.0573 E-score.
The value for TAAATTGA was 0.221 E-score; that for AGATTACA was 0.0826 E-score; that for AATGTCAA was -0.0783 E-score.
The value for ACTTCTAG was 0.235 E-score; that for GAGTACCA was -0.0807 E-score; that for ATATCGAC was 0.0908 E-score.
CTAAATAA had a binding signal of 0.266 E-score.
ATAGCTGA registered a binding signal of 0.11 E-score.
On to CGAAAAGA, for which the binding signal is -0.0269 E-score.
The value for GGGAGACA was -0.302 E-score; that for CAGCACTA was -0.19 E-score; that for ACCAAGTG was -0.127 E-score.
TTACATAA returned a binding signal of 0.288 E-score.
The value for GGGGCTGA was -0.355 E-score.
Sequence ACGTTCCC had a binding signal of -0.195 E-score.
On to CTGTCTGA, for which the binding signal was -0.222 E-score.
The value for CCCCTGCA was -0.335 E-score; that for CACACGTC was -0.256 E-score; that for CATGTGTA was 0.23 E-score.
The value for CGCGGTTC was -0.14 E-score.
The value for GGTTGGAC was -0.252 E-score; that for AATGAAAA was -0.038 E-score; that for CAGCGTTA was 0.0516 E-score.
GGGCGCCA displayed a binding signal of -0.231 E-score.
In the case of AACCTTCG, the binding signal is -0.0943 E-score.
In the case of ATATTTTC, the binding signal stood at 0.316 E-score.
The value for CAGATATA was 0.195 E-score; that for GGAAAGAC was -0.185 E-score; that for AAAACTGC was -0.0367 E-score.
The value for ATAGCTAC was 0.31 E-score; that for ATTATGAA was 0.153 E-score; that for ACTAACCT was 0.13 E-score.
The value for ACTTAACA was 0.192 E-score; that for ATCCATGC was 0.0436 E-score; that for TGCGTAAA was 0.0869 E-score.
The sequence AATTGCAG returned a binding signal of -0.0417 E-score.
For ACCGAATG, the binding signal was 0.181 E-score.
The value for GGGTCAAA was -0.168 E-score; that for GGAGTGGA was -0.299 E-score; that for AGTCACCG was 0.109 E-score.
The value for AATCCTAG was 0.0199 E-score; that for GCACCGGA was -0.0184 E-score; that for CACCGACC was -0.145 E-score.
The value for ACTTTCGA was 0.00677 E-score; that for TCCGTTAA was -0.0144 E-score; that for GTTAATGA was 0.082 E-score.
Sequence TAACCTGA registered a binding signal of -0.0138 E-score.
CGGCATTC showed a binding signal of -0.317 E-score.
The value for CAGCAGGG was -0.187 E-score; that for AAAGCGAT was 0.0225 E-score.
On to CGACAATC, for which the binding signal was -0.0224 E-score.
In turn, TGCGTCCA had a binding signal of -0.0414 E-score.
The value for CTAATGAC was -0.0991 E-score; that for AAAGCGCT was -0.0448 E-score.
Regarding AAATTTTC, the binding signal was determined as 0.182 E-score.
The value for AGATTAAT was 0.265 E-score; that for TCAATCAA was -0.14 E-score; that for ATCTGTGC was 0.11 E-score.
As for ACTATCCG, the binding signal is -0.0363 E-score.
The value for CAGCCAAA was -0.0566 E-score; that for GGGGCATA was -0.0817 E-score; that for CTCTTAAC was 0.00417 E-score.
For the sequence CTGAGATC, the binding signal is -0.0302 E-score.
The value for AGCATAAT was 0.369 E-score.
CAGGTAGG yielded a binding signal of -0.092 E-score.
GCTGCTCA showed a binding signal of -0.231 E-score.
The value for ATTGCGTA was 0.259 E-score.
For GAAAGTTA, the binding signal was determined as 0.121 E-score.
The value for GAACAGGC was -0.193 E-score.
In turn, AGGCATGG returned a binding signal of -0.0956 E-score.
TGCCAAAA had a binding signal of 0.0238 E-score.
The value for GCTATGGA was 0.0973 E-score.
On to AACTCGAA, for which the binding signal was found to be 0.0378 E-score.
The value for ATGGTATC was 0.0289 E-score; that for CTAAATAC was 0.287 E-score; that for GCAAGACC was -0.24 E-score.
The sequence GACTAATC showed a binding signal of 0.132 E-score.
The value for CGCACGGA was -0.149 E-score.
On to CAGCGACG, for which the binding signal is -0.179 E-score.
The value for ATTTTCAA was -0.13 E-score; that for AACGTCCC was -0.298 E-score; that for CTGTATAA was 0.215 E-score.
The sequence CGGCCCTA registered a binding signal of -0.267 E-score.
The value for ATCCCTAA was -0.0982 E-score; that for CCATGCGC was -0.253 E-score; that for ATCGCGCA was -0.0522 E-score.
As to ACACGTGC, the binding signal was -0.137 E-score.
The value for TAGAGCGA was -0.00858 E-score.
